Test results taken from the supplement of paper PMC4967469.
Lines with a small IC50 respond at low doses; fits outside the tested doses are given as limits. AUC sums up the same curve from the lowest dose to the 256-fold higher top dose; the more sensitive the line, the further below 1. For some of these results: An inferred top dose is not printed in the source and was worked back from the curve model. For some of these results: An entry number marks a drug with two screens in the source, which often give different values.

What was measured:
Assay in all cases: Viability of human cancer cell lines after 72 h of drug (GDSC screen)
YM155 = compound: COCC[n+]1c2c(n(Cc3cnccn3)c1C)C(=O)c1ccccc1C2=O [YM155]; conditions: top dose 5.12 µM
Experimental: (§1)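 Human cancer cell lines in 384-well plates, medium with 10% serum, drug for 72 h over a 256-fold dose range (nine 2-fold or five 4-fold steps up to the top dose). Adherent lines were fixed and stained with the nucleic acid dye Syto60, suspension lines read with resazurin; signal relative to control wells, capped at 0 and 100%. One two-parameter sigmoid per drug and line, fitted in a mixed model over all curves with the slope shared within a line.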

JNJ-26854165 = compound: c1ccc2c(CCNc3ccc(Nc4ccncc4)cc3)c[nH]c2c1 [JNJ-26854165]; conditions: top dose 10 µM
Experimental: as §1

SB-715992 = compound: Cc1ccc(C(=O)N(CCCN)[C@@H](c2nc3cc(Cl)ccc3c(=O)n2Cc2ccccc2)C(C)C)cc1 [SB-715992]; conditions: top dose 0.128 µM; top dose inferred
Experimental: as §1

CGP-60474 = compound: OCCCNc1cc(-c2ccnc(Nc3cccc(Cl)c3)n2)ccn1 [CGP-60474]; conditions: top dose 0.256 µM; top dose inferred
Experimental: as §1

OSI-906 = compound: C[C@]1(O)C[C@@H](c2nc(-c3ccc4ccc(-c5ccccc5)nc4c3)c3c(N)nccn32)C1 [OSI-906]; conditions: top dose 2.56 µM; top dose inferred
Experimental: as §1

JQ1 = compound: Cc1sc2c(c1C)C(c1ccc(Cl)cc1)=N[C@@H](CC(=O)OC(C)(C)C)c1nnc(C)n1-2 [JQ1]
Experimental: as §1

FTI-277 = compound: COC(=O)[C@H](CCSC)NC(=O)c1ccc(NC[C@@H](N)CS)cc1-c1ccccc1 [FTI-277]; conditions: top dose 1.024 µM; top dose inferred
Experimental: as §1

Cyclopamine = compound: CC1=C2C[C@H]3[C@@H](CC=C4C[C@@H](O)CC[C@@]43C)[C@@H]2CC[C@]12O[C@@H]1C[C@H](C)CN[C@H]1[C@H]2C [Cyclopamine]; conditions: top dose 16 µM; top dose inferred
Experimental: as §1

JNK Inhibitor VIII = compound: CCOc1nc(NC(=O)Cc2cc(OC)ccc2OC)cc(N)c1C#N [JNK Inhibitor VIII]; conditions: top dose 10 µM; top dose inferred
Experimental: as §1

Docetaxel = compound: CC(=O)O[C@@]12CO[C@@H]1C[C@H](O)[C@@]1(C)C(=O)[C@H](O)C3=C(C)[C@@H](OC(=O)[C@H](O)[C@@H](NC(=O)OC(C)(C)C)c4ccccc4)C[C@@](O)([C@@H](OC(=O)c4ccccc4)[C@H]21)C3(C)C [Docetaxel]; conditions: top dose 0.0125 µM
Experimental: as §1

AMG-706 = compound: CC1(C)CNc2cc(NC(=O)c3cccnc3NCc3ccncc3)ccc21 [AMG-706]; conditions: top dose 2 µM; top dose inferred
Experimental: as §1

Belinostat = compound: O=C(/C=C/c1cccc(S(=O)(=O)Nc2ccccc2)c1)NO [Belinostat]; conditions: top dose 20 µM; top dose inferred
Experimental: as §1

NSC-207895 = compound: CN1CCN(c2ccc([N+](=O)[O-])c3no[n+]([O-])c23)CC1 [NSC-207895]; conditions: top dose 20 µM; top dose inferred
Experimental: as §1

[1] = top dose 1 µM, screen: GDSC drug entry 1218, top dose inferred
[2] = top dose 2.56 µM, screen: GDSC drug entry 163

SUP-T1 (T-cell lymphoblastic leukaemia, suspension)
AUC (YM155): 0.022 | IC50 (YM155): < 20 nM | AUC (JNJ-26854165): 0.976 | IC50 (JNJ-26854165): > 10000 nM | AUC (SB-715992): 0.753 | IC50 (SB-715992): 39.3 nM | AUC (CGP-60474): 0.989 | IC50 (CGP-60474): > 256 nM | AUC (OSI-906): 0.919 | IC50 (OSI-906): > 2560 nM | AUC (JQ1; [1]): 0.916 | IC50 (JQ1; [1]): > 1000 nM | AUC (JQ1; [2]): 0.556 | IC50 (JQ1; [2]): 224 nM | AUC (FTI-277): 0.975 | IC50 (FTI-277): > 1020 nM | AUC (Cyclopamine): 0.985 | IC50 (Cyclopamine): > 16000 nM | AUC (JNK Inhibitor VIII): 0.985 | IC50 (JNK Inhibitor VIII): > 10000 nM | AUC (Docetaxel): 0.99 | IC50 (Docetaxel): > 12.5 nM | AUC (AMG-706): 0.987 | IC50 (AMG-706): > 2000 nM | AUC (Belinostat): 0.24 | IC50 (Belinostat): 243 nM | AUC (NSC-207895): 0.866 | IC50 (NSC-207895): 15200 nM

TE-6 (oesophagus, adherent)
AUC (YM155): 0.421 | IC50 (YM155): 187 nM | AUC (JNJ-26854165): 0.896 | IC50 (JNJ-26854165): > 10000 nM | AUC (SB-715992): 0.985 | IC50 (SB-715992): > 128 nM | AUC (CGP-60474): 0.885 | IC50 (CGP-60474): > 256 nM | AUC (OSI-906): 0.986 | IC50 (OSI-906): > 2560 nM | AUC (JQ1; [1]): 0.985 | IC50 (JQ1; [1]): > 1000 nM | AUC (JQ1; [2]): 0.86 | IC50 (JQ1; [2]): > 2560 nM | AUC (FTI-277): 0.986 | IC50 (FTI-277): > 1020 nM | AUC (Cyclopamine): 0.983 | IC50 (Cyclopamine): > 16000 nM | AUC (JNK Inhibitor VIII): 0.985 | IC50 (JNK Inhibitor VIII): > 10000 nM | AUC (Docetaxel): 0.865 | IC50 (Docetaxel): > 12.5 nM | AUC (AMG-706): 0.967 | IC50 (AMG-706): > 2000 nM | AUC (Belinostat): 0.985 | IC50 (Belinostat): > 20000 nM | AUC (NSC-207895): 0.932 | IC50 (NSC-207895): > 20000 nM

TE-9 (oesophagus, adherent)
AUC (YM155): 0.866 | IC50 (YM155): 4900 nM | AUC (JNJ-26854165): 0.852 | IC50 (JNJ-26854165): 8200 nM | AUC (SB-715992): 0.987 | IC50 (SB-715992): > 128 nM | AUC (CGP-60474): 0.778 | IC50 (CGP-60474): 108 nM | AUC (OSI-906): 0.971 | IC50 (OSI-906): > 2560 nM | AUC (JQ1; [1]): 0.986 | IC50 (JQ1; [1]): > 1000 nM | AUC (JQ1; [2]): 0.855 | IC50 (JQ1; [2]): 2160 nM | AUC (FTI-277): 0.943 | IC50 (FTI-277): > 1020 nM | AUC (Cyclopamine): 0.951 | IC50 (Cyclopamine): > 16000 nM | AUC (JNK Inhibitor VIII): 0.976 | IC50 (JNK Inhibitor VIII): > 10000 nM | AUC (Docetaxel): 0.533 | IC50 (Docetaxel): 0.963 nM | AUC (AMG-706): 0.986 | IC50 (AMG-706): > 2000 nM | AUC (Belinostat): 0.987 | IC50 (Belinostat): > 20000 nM | AUC (NSC-207895): 0.983 | IC50 (NSC-207895): > 20000 nM

TGBC1TKB (biliary tract, adherent)
AUC (YM155): 0.03 | IC50 (YM155): < 20 nM | AUC (JNJ-26854165): 0.944 | IC50 (JNJ-26854165): > 10000 nM | AUC (SB-715992): 0.985 | IC50 (SB-715992): > 128 nM | AUC (CGP-60474): 0.575 | IC50 (CGP-60474): 25.6 nM | AUC (OSI-906): 0.977 | IC50 (OSI-906): > 2560 nM | AUC (JQ1; [1]): 0.988 | IC50 (JQ1; [1]): > 1000 nM | AUC (JQ1; [2]): 0.902 | IC50 (JQ1; [2]): > 2560 nM | AUC (FTI-277): 0.984 | IC50 (FTI-277): > 1020 nM | AUC (Cyclopamine): 0.983 | IC50 (Cyclopamine): > 16000 nM | AUC (JNK Inhibitor VIII): 0.979 | IC50 (JNK Inhibitor VIII): > 10000 nM | AUC (Docetaxel): 0.83 | IC50 (Docetaxel): 7.8 nM | AUC (AMG-706): 0.976 | IC50 (AMG-706): > 2000 nM | AUC (Belinostat): 0.511 | IC50 (Belinostat): 1340 nM | AUC (NSC-207895): 0.759 | IC50 (NSC-207895): 6930 nM
